Changes are numbered by the printed parent chain. Results are given in words; binding and its absence hold for the method and conditions named. In cells and extracts the contact can be indirect. Some results given as binding are weak or reduced against the parent protein; the word gives no strength. For part of these data: Tags and fused reporters may be left off the sequences shown. One block for each molecule: values may come before it.
Tests used:
[1] = target: T1, HMHA1* BDA1* ST-CDAN1 (human) (UniProt Q8IWY9); assay: pull-down; Strep-Tactin pulldown of transiently transfected ST-CDAN1 variants from Flp-In 293 T-REx lysates; endogenous ASF1A, ASF1B and CDIN1 detected by immunoblotting; IP buffer with 1% Triton X-100, 1 hr at 4 °C
T1 sequence: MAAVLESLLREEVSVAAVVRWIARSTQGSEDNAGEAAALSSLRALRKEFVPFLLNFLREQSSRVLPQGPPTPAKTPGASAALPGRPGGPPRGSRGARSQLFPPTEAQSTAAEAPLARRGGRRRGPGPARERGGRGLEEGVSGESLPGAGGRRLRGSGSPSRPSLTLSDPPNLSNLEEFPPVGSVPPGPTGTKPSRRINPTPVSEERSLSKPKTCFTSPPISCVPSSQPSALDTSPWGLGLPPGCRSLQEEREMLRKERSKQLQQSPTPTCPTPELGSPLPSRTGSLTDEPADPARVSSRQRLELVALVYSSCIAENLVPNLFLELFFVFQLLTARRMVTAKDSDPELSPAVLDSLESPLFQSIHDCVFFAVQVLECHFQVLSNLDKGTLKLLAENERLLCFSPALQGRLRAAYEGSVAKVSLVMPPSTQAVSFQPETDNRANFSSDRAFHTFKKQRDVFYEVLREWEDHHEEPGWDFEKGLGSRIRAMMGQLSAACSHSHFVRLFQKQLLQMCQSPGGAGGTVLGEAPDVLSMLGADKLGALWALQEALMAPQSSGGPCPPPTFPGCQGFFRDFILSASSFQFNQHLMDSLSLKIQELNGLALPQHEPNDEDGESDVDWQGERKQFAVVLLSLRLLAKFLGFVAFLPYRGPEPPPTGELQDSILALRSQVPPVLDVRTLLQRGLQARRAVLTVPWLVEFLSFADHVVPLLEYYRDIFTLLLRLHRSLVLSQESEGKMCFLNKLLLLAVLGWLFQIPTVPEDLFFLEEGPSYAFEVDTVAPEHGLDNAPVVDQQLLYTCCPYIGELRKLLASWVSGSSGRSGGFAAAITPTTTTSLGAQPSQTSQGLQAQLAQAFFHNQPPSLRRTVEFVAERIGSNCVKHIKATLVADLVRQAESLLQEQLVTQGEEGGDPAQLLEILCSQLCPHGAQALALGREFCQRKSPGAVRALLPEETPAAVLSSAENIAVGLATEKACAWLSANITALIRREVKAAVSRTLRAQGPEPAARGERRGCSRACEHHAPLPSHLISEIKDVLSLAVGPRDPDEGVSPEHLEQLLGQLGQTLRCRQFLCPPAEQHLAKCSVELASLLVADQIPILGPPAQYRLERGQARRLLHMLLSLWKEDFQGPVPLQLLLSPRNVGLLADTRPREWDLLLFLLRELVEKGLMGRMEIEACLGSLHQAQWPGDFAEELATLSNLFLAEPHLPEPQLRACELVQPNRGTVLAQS

Protein sequences, listed by entry. Tags and fused reporters are not part of them.
UniProt Q9NVP2: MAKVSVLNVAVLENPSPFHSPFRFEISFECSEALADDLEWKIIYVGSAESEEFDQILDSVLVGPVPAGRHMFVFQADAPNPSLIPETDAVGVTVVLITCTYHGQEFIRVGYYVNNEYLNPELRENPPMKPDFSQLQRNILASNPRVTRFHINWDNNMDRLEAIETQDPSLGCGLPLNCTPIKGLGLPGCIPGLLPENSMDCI
UniProt Q9Y294: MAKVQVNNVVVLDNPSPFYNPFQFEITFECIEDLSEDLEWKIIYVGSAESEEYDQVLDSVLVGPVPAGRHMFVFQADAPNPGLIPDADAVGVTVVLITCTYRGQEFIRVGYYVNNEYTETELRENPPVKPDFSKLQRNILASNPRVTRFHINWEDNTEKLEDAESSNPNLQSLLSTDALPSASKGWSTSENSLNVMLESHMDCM

[2] = target: T2, Strep-CDAN1 HMHA1* (R541A/R544A/R548A) (human) (UniProt Q8IWY9); assay: as above
T2 sequence: T1 sequence with A824M, A825R, A826K

[3] = target: T3, FLAG-tagged CDIN1 (F-CDIN1) (UniProt Q9Y2V0); assay: co-IP; anti-FLAG IP (first step of the tandem purification) from lysates of transiently transfected Expi293 cells; IP buffer with 1% Triton X-100, 4 °C; elution with 3xFLAG peptide; immunoblotting
T3 sequence: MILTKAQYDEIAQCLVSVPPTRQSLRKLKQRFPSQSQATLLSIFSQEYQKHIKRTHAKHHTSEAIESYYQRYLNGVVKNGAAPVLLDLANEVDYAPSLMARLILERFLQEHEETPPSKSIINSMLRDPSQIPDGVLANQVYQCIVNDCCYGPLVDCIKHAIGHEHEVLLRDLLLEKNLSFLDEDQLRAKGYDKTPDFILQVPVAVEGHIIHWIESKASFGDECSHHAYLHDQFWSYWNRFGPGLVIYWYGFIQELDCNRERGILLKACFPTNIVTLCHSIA

binding [1]: no binding
binding [2]: no binding
Molecule: endogenous ASF1B (from UniProt Q9NVP2 1-202)

binding [3]: binds
binding [1]: binds
binding [2]: binds
Molecule: endogenous ASF1A (from UniProt Q9Y294 1-204)

binding [3]: binds
B1: FLAG-tagged CDIN1 (F-CDIN1) (natural protein, UniProt Q9Y2V0 1-281, looked up)
chain: T3 sequence
notes: C15orf41); cDNA synthesized by IDT; source: Expi293, transiently transfected, in lysate and purified in complexes (anti-FLAG, Strep-Tactin); not shown: 3xFLAG, N-terminal, kept
